Assay results as given in the supplement of paper PMC10126150.
Sequences with one replicate were seen in a single cluster, so their values are uncertain.

Tested on: ATP
Assay: switch fluorescence ratio, 500 uM ATP over buffer (Cy3 cluster intensity, sum of 5 cycles each) (fold (ratio)); higher = stronger signal-on switching upon ATP binding; sequences stand for … in TCGTCGGCAGCGTCAGATGTGTATAAGAGACAGTTTTTTTTTTTTTTTTTTTTTTTTT…TC
Details: aptamer strand: ATP DNA aptamer (quencher-CACCTGGGGGAGTATTGCGGAGGAAGG + anchor), 100 nM annealed; ATP concentration: 500 uM; one replicate
Method in brief: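 After annealing to 100 nM quencher-labelled ATP aptamer, Cy3-labelled switching-strand clusters on a modified Illumina MiSeq flow-cell were imaged in selection buffer. A second image followed after 15 min with 500 uM ATP at 22 °C, and five such buffer/ATP cycles were done, each separated by NaOH stripping and re-annealing. The fluorescence ratio, averaged per switch-domain sequence, is summed target-cycle over summed buffer-cycle Cy3 intensity per cluster, with clusters outside 100-1000 RFU excluded.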
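Note: ATP exposure 15 min at 22 °C before imaging.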

Sequence | switch fluorescence ratio
CGATTTTACG | 1
AGTACAGGA | 1.03
AACAAGTGG | 0.977
AGATGTTAGT | 1
CCCGTCTGTG | 1.04
CATTCCTAGG | 1.05
ACACTTAAAG | 1.02
GATAACTTCC | 2.54
AAGCTGGGAT | 0.991
TTGGGAAAGC | 0.974
AAAGCCGGAC | 1.08
ACATACTTTC | 1.22
GTGATCTCA | 0.993
TGTGGGGACT | 0.97
GAACTTCGAC | 1.12
TGTGTCAACG | 0.968
GGTACATATT | 0.996
ACAAGTTTA | 0.982
GGCCAGAGTG | 0.997
TGGCGCTCAG | 1
ACCGGTAGAA | 0.993
GTTGAGTGCC | 1.02
TCGATCGGTA | 1
AGCATGATCG | 1.05
CGGTCTGGGT | 1.02
TCGGACGTG | 0.994

Sequence | switch fluorescence ratio
GCTTAAATGT | 0.974
TGTAAAATGA | 1.01
GTTATCGCGG | 0.97
TTCACGCCTT | 1.06
ATATTTGGA | 1.02
CAAAAGCGGA | 0.962
CAAATCCATA | 0.995
CGTAGGCGAT | 1.02
AATAATCCCA | 1.02
GCCCCCTTTT | 1
TGACAATTTG | 0.942
AAAAGTCACG | 1.03
CCGCAGTGGG | 3
GCCGCCTTGC | 1.09
AATGACGAAC | 1.38
ATTAGTCCCT | 1.03
CTTCGGCATT | 1.84
CGTTGTCGTG | 1.03
TAGTGCGCCC | 1.04
AAAATAGAGA | 0.996
TAGCCTTGCA | 0.974
GGCATCGGGG | 1.02
GCGGGTTACG | 1
TAAGGTTAGG | 0.984
GGTCTGCAGT | 1.04
CCATGTTTTG | 0.969

Sequence | switch fluorescence ratio
TTAGGGTTAT | 0.997
CAAGCTTTCA | 1.04
AGGAAGTAAC | 1
GAGCCATTCT | 0.994
AAGTAAGTC | 0.984
GCAGCTGCTG | 1.01
TATGGCGTGG | 1
GTATGTACGC | 1.06
GGTTATTGCG | 0.993
ATACAGTAAA | 1.05
AGCGGGCTCT | 0.949
TCGGGTTTGC | 1.02
CTTCCCTCGG | 1.27
AACGAAGTGT | 1.03
ATTCTCGGGT | 0.987
AGCCTACGTA | 1.11
TGCCTAGGCA | 0.993
TATTGGCCGT | 0.964
CGAATTTGTT | 0.978
AACTTCACTA | 1.13
CATGACTAGG | 0.999
TTAGGTAAGC | 0.989
ACCTCGGTAC | 1.27
AGACAAGGG | 1.02
CGAAGCAGAG | 2.12
TCGATGGTCA | 0.986

Sequence | switch fluorescence ratio
AACCCCGTCC | 1.43
GAGTAACGCG | 1.06
TCTGCGAATC | 1.61
ACATCTAA | 0.969
CCTCGGGATA | 2.22
CGTTACGGAT | 0.999
AAAACTTGTT | 0.966
ATATCTATTG | 0.984
TCTGCGAGT | 1.04
GCGCGAATTG | 0.959
TTCGTCTTT | 1.05
AGTTTCGAAT | 0.99
CTTACACTA | 1.05
GGAAAATGAA | 0.97
CTAAGGTGAC | 1.07
GCATTTCGTC | 1.01
GCCTAGGATG | 0.998
TCTAAGGCTT | 1.03
CGGGACAGGA | 1
GACGAGCAAG | 1.18
ATGCGCCATT | 1.03
CTCCTGGGAG | 0.957
ATGGGTTGTA | 1
AGAGATACAT | 1.02
GGGGGGCGAA | 0.953
CCTAAACTAC | 1.7

Sequence | switch fluorescence ratio
GTAGCGTAAG | 0.996
CTTGCCCAGC | 1.05
ATTCATTAG | 0.962
TTTAGACCGA | 1.03
TACATGTAAC | 1.03
ATACTTAGT | 0.976
AATGGAATGC | 1.06
CATAACTGCA | 1.07
GGCTGTGCAA | 1.33
GAATAACCAA | 0.979
AAATAAAGAA | 0.943
TCTTAGAGAG | 0.924
GAATTCTCGC | 0.965
GGGCCTATAC | 1.55
TTCGATCGAC | 1.04
CGGGAGACAC | 1.03
TACCCTCGTT | 0.991
CAATACGGAT | 1.05
GGGGACGGTT | 0.992
TCTCGCTGCA | 0.981
TATAAAGTGT | 0.985
ACCTGCTAGC | 1.03
ATACTCAAGA | 1.05
TCTAGCTCCA | 1.07
TTCCTCAGGC | 1.11
TGAAAATCCC | 1.02

Sequence | switch fluorescence ratio
TTGATCATGT | 0.994
CAGGGTCAGA | 1.05
CACTGGTAGC | 1.06
CTGTTTCTTT | 0.999
ACGGGCTACC | 1.08
TATAGCATGG | 1.03
AATAGATCAG | 0.963
GGGATGGC | 1.07
TTTGGTCAGG | 1
CGTAGGTCAA | 1.07
ATAGTCGCCT | 1.06
CTTAGCGTCA | 1
AGAATGTGGC | 0.988
AATGGCCGGG | 0.954
CTCCTGAGGT | 0.994
ATCAGGAATA | 1.04
GATAATCGAA | 0.974
GAAAGTCCGT | 0.98
TGAGTTACGT | 0.992
ATGCTCTCGT | 1.02
GTGTGCTTCT | 0.981
ATTCTAATTA | 0.999
CTCTAGATTG | 1.09
TTTACCTATG | 1.04
TACGCCGGGG | 1.01
ACTATTAGTT | 1.01

Sequence | switch fluorescence ratio
AAGGGGTTC | 0.963
GGAGGAGACG | 0.985
TGATATATGC | 1
AACGTCGCAC | 1.09
AGCGATTTTA | 1.03
CTCCCGGGGG | 1.46
GTTATTTAA | 0.997
ACTATAGACT | 1.05
ATTCATTAAG | 1.02
ATAGTTATTC | 0.974
GTGAAGGTTA | 0.998
CAAAGACGAG | 0.987
AAGCTGGGTT | 0.964
TTACTCTACA | 1.31
TTTTTGTCCT | 0.994
GCACTTCGTA | 0.986
TATTAGAGAT | 0.988
ATATTGGAT | 0.998
GGGAGATGTT | 1.01
TTTAATGGTG | 1.14
GGCGTCCAAG | 1.03
TCTTGAAATG | 1.04
GAGGTACTGC | 0.986
CGCATAATGG | 1.9
TCTGGGGGCC | 1.03
ATAACTGGGA | 0.997

Sequence | switch fluorescence ratio
GTGTTGGCG | 1.01
AGCAAGGGAG | 1.06
TGATTCCAGT | 1.02
CTTATGTTTT | 1.01
ACCAGGTTAA | 1.03
ATTTAACGTA | 1.07
GAAACAGGTT | 0.985
CGCGCACTGG | 1.32
CAAGCGATGT | 1.09
GAATAACCCC | 1.02
GCTGGTATGA | 0.973
AATGAGTTGG | 1.01
CGCTAGAAAA | 1.04
GATCGTGCAA | 1.26
GGCAATGTT | 1.06
AATCGTGAAA | 1
TTTCGGATAT | 1.35
CTGACCAGGA | 1.03
CAATTACCAT | 1
